Assay results taken from PubChem BioAssay AID624173 (National Center for Advancing Translational Sciences (NCATS), 2012).
Among all 410,000 compounds or so, about 490 (0.12%) were called active. Inconclusive means that the source gave no clear call. Such entries were picked first, then a sample of the others. The call rests on the fitted dose curve; in most records, active means well fitted inhibition curve with a large enough effect; inconclusive means small, poorly fitted or top-dose-only effect; inactive means flat fitted curve, though single readings scatter. Where the call is inconclusive, the potency comes from a doubtful curve fit.

Molecular target: pyruvate kinase (Trypanosoma brucei) (UniProt Q57TT1)
Test: qHTS of Trypanosoma Brucei Inhibitors; further: nearly all actives have a fitted effect of over 50% in size
Conditions: TbPYK enzyme, Kinase-Glo Plus ATP luminescence, 45 min; series mostly up to 76.8 µM
Summary of the method: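 Activity of T. brucei pyruvate kinase was followed by Kinase-Glo Plus luminescence after the enzyme reacted 45 min at room temperature with 130 uM ADP (final) and substrate. Test compounds were added before ADP at multiple concentrations.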
Potency means the concentration at half of the fitted maximal effect; tags describe the fitted curve by direction and shape.

Q: `N#CC(C#N)=C1C=CC=CN1/C(=C\c1ccco1)C(=O)c1ccc(Cl)cc1` was tested. Which Potency did it give?
A: inconclusive: 44.7 µM [inhibitor, single point]

Q: With `O=C(NN1CCOCC1)c1ccc(Cl)c([N+](=O)[O-])c1` as the compound, how does the Potency read?
A: inactive

Q: `O=C(Nc1cccc(Cl)c1)c1cc(-c2ccco2)on1` was tested. Which Potency did it give?
A: inactive

Q: How did the Potency turn out when `S=c1[nH]nc(COc2ccc(Cl)cc2)n1Cc1ccco1` was run?
A: inconclusive: 11.2 µM [inhibitor, partial curve]

Q: `COc1cc(OC)c(NC(=O)Cn2c(=O)nc(-c3ccccc3)c3ccccc32)cc1Cl` was tested. Which Potency did it give?
A: inactive

Q: Which Potency does the source give for `O=C1/C(=C/c2cccc(F)c2)SC(=S)N1NS(=O)(=O)c1ccccc1` here?
A: inconclusive: 50.1 µM [inhibitor, single point]

Q: For `Cc1cccc(Nc2n[nH]c(=S)s2)c1C`, which Potency is on record?
A: inconclusive: 17.8 µM [inhibitor, partial curve, poor fit]

Q: `Cc1nn(C)c(-c2n[nH]c(=S)n2-c2ccccc2)c1Cl` was tested. Which Potency did it give?
A: inconclusive: 20 µM [inhibitor, partial curve, poor fit]

Q: How did the Potency turn out when `O=C1NC(=S)NC(=O)C1=Cc1ccc2c(c1)CCN2CCCCl` was run?
A: inconclusive: 11.2 µM [inhibitor, partial curve]

Q: Which Potency does the source give for `C[N+](C)(C)CCN1C(=O)CSC1=O` here?
A: inactive

Q: How did the Potency turn out when `O=C(Nc1ccc(Cl)cc1)Nc1ccccc1CC[N+](=O)[O-]` was run?
A: inconclusive: 35.5 µM [inhibitor, single point]

Q: `COc1ccc(/C=C/C(=O)c2ccccn2)cc1` was tested. Which Potency did it give?
A: inconclusive: 28.2 µM [inhibitor, partial curve]

Q: How did the Potency turn out when `O=C(Nc1ccccc1)OC[C@@H]1C=CS(=O)(=O)N1Cc1ccc(Br)cc1` was run?
A: inactive

Q: `CCCCN(C)c1nc(-c2ccco2)c2c(c1C#N)CC(C)(C)OC2` was tested. Which Potency did it give?
A: inconclusive: 39.8 µM [inhibitor, single point]

Q: For `COc1cccc(/C=N/Nc2cc(N3CCOCC3)ncn2)c1O`, which Potency is on record?
A: inactive

Q: With `CC(=Nc1ccc(O)cc1)c1sc2ccccc2c1O` as the compound, how does the Potency read?
A: inactive

Q: How did the Potency turn out when `COC(=O)c1ccc(CN(c2ccc(C)cc2)S(=O)(=O)c2ccc3c(c2)OCCO3)o1` was run?
A: inconclusive: 50.1 µM [inhibitor, single point]

Q: `CCc1ccc(NC(=O)Nc2ccsc2C(=O)OC)cc1` was tested. Which Potency did it give?
A: inconclusive: 28.2 µM [inhibitor, partial curve, poor fit]

Q: With `COc1cccc(Nc2ccc(N3CCCCC3)cc2)c1OC` as the compound, how does the Potency read?
A: inconclusive: 5.62 µM [inhibitor, partial curve, poor fit]

Q: How did the Potency turn out when `Cc1ccc(C(CNS(=O)(=O)c2ccc(F)cc2C)N2CCN(C)CC2)cc1` (configuration not stated) was run?
A: inactive

Q: `COc1cc(C(=O)NNC(=S)Nc2ccc(S(N)(=O)=O)cc2)cc(OC)c1OC` was tested. Which Potency did it give?
A: inconclusive: 3.16 µM [inhibitor, full curve, poor fit]

Q: Which Potency does the source give for `CCCCCC(=O)NNC(=S)NC(=O)c1cccc([N+](=O)[O-])c1` here?
A: inconclusive: 14.1 µM [inhibitor, partial curve, poor fit]

Q: With `Cc1cc(-c2nn(-c3ccccc3F)cc2CN2CCC(C(N)=O)CC2)c(C)s1` as the compound, how does the Potency read?
A: inactive

Q: `COc1ccc(Nc2ncc(C(=O)N3CCC(C(N)=O)CC3)c3ccccc23)cc1` was tested. Which Potency did it give?
A: inconclusive: 50.1 µM [inhibitor, single point]

Q: `S=c1[nH]nc(CCc2ccccc2)n1Cc1ccccc1` was tested. Which Potency did it give?
A: active: 3.98 µM

Q: With `CCn1c(O)c(/C=C2\C=Nc3ccccc32)sc1=Nc1ccccc1` as the compound, how does the Potency read?
A: inactive

Q: Which Potency does the source give for `Cn1c(NC(=O)c2ccc(Cl)s2)cc(=O)n(C)c1=O` here?
A: inactive

Q: For `O=C(NCc1ccco1)c1cc([N+](=O)[O-])ccc1N1CCCCC1`, which Potency is on record?
A: inconclusive: 28.2 µM [inhibitor, single point]

Q: `Cc1ccc(C(=O)Nc2ccc(O)c(C(=O)O)c2)o1` was tested. Which Potency did it give?
A: inconclusive: 35.5 µM [inhibitor, partial curve]

Q: With `Cc1cccc(C(=O)N[C@H](C(=O)Nc2nc3ccccc3[nH]2)C(C)C)c1` as the compound, how does the Potency read?
A: inactive

Q: Which Potency does the source give for `CCCc1cc(-c2n[nH]c(=S)n2CC(C)C)cs1` here?
A: inconclusive: 25.1 µM [inhibitor, partial curve, poor fit]

Q: For `COc1ccc(Cl)cc1NC(=O)CCc1c(C)nc2c(c1C)c(=O)n(C)c(=O)n2C`, which Potency is on record?
A: inactive

Q: Which Potency does the source give for `Cc1cc(C)cc(OC(C)C(=O)Nc2ccccc2C(=O)NCc2cccnc2)c1` (configuration not stated) here?
A: inconclusive: 22.4 µM [inhibitor, partial curve]

Q: For `Clc1nssc1=Nc1ccc(Br)cc1`, which Potency is on record?
A: inconclusive: 17.8 µM [inhibitor, partial curve, poor fit]

Q: For `O=C(Cn1nnc2ccccc21)N/N=C\c1cccs1`, which Potency is on record?
A: inactive

Q: Which Potency does the source give for `O=[n+]1c2c(n([O-])c3ccccc31)CCCC2` here?
A: inconclusive: 8.91 µM [inhibitor, full curve]

Q: Which Potency does the source give for `O=C(COc1ccccc1O)NNc1ccccc1` here?
A: inactive

Q: `Cc1ccc(/C=C2\SC(=O)N(CCC(=O)N3CCN(C)CC3)C2=O)cc1` was tested. Which Potency did it give?
A: inactive

Q: Which Potency does the source give for `Cc1ccc(NC(=O)CN(C)C(=O)c2cc(-c3ccco3)nc3ccccc23)cc1` here?
A: inconclusive: 28.2 µM [inhibitor, single point]

Q: With `CCOc1ccc(OCCn2c(=S)[nH]c3c(N)ncnc32)cc1` as the compound, how does the Potency read?
A: inconclusive: 20 µM [inhibitor, partial curve, poor fit]

Q: Which Potency does the source give for `CCOC(=O)N1CCc2c(sc3c2c(=O)n(Cc2ccccc2)c(=O)n3Cc2c(F)cccc2Cl)C1` here?
A: inactive

Q: For `Cc1ccc(CNC(=S)Nc2ccc3c(c2)c(=O)n(C)n3Cc2cccc(C(F)(F)F)c2)cc1`, which Potency is on record?
A: inconclusive: 28.2 µM [inhibitor, partial curve, poor fit]

Q: Which Potency does the source give for `COc1ccc(C(=O)O/N=C(\N)c2ccccn2)cc1` here?
A: active: 10 µM

Q: With `CCOC(=O)c1[nH]c2ccccc2c1NC(=O)c1ccc(OC(C)C)cc1` as the compound, how does the Potency read?
A: inactive

Q: For `Cn1sc(NC(=O)c2cccc(Cl)c2)nc1=O`, which Potency is on record?
A: inactive

Q: How did the Potency turn out when `O=C(Nc1ccccc1)N1CCc2ccccc21` was run?
A: inconclusive: 31.6 µM [inhibitor, partial curve, poor fit]

Q: How did the Potency turn out when `CSc1ccccc1C(=O)Nc1cccc(C(C)=O)c1` was run?
A: inconclusive: 31.6 µM [inhibitor, single point]

Q: `CCc1ccc(C(=O)CSc2ncn[nH]2)cc1` was tested. Which Potency did it give?
A: inconclusive: 50.1 µM [inhibitor, single point]

Q: Which Potency does the source give for `CSC1=N/C(=C\c2ccc(Cl)cc2)C(=O)N1N(C)C` here?
A: inactive

Q: For `O=C1CCCC2=C1C(c1ccc(O)c(O)c1)Nc1ccc3ccccc3c12` (configuration not stated), which Potency is on record?
A: inconclusive: 12.6 µM [inhibitor, partial curve, poor fit]

Q: With `O=C(NC1CCN(Cc2ccccc2)CC1)c1ccccc1OCc1ccccc1Cl` as the compound, how does the Potency read?
A: inactive

Q: With `Cc1ccc2c(c1)-c1c(ssc1=S)C(C)(C)N2C(=O)CSc1nncn1C` as the compound, how does the Potency read?
A: inconclusive: 35.5 µM [inhibitor, partial curve, poor fit]

Q: With `COc1ccc(CCCc2n[nH]c(=S)o2)cc1C` as the compound, how does the Potency read?
A: inconclusive: 7.94 µM [inhibitor, partial curve, poor fit]

Q: Which Potency does the source give for `Fc1ccccc1/C=C/c1ccc2ccccc2n1` here?
A: inconclusive: 22.4 µM [inhibitor, partial curve]

Q: Which Potency does the source give for `Cc1ccc(C(=O)Nc2nnc(Cc3ccccc3)s2)cc1` here?
A: inactive

Q: For `CCN1/C(=C2\C(=O)N(C)C(=S)N2C)C=Cc2ccccc21`, which Potency is on record?
A: inconclusive: 25.1 µM [inhibitor, partial curve]

Q: Which Potency does the source give for `CC(c1ccccc1)C1CC(=O)N(Cc2ccco2)C1=O` (configuration not stated) here?
A: inconclusive: 35.5 µM [inhibitor, partial curve, poor fit]

Q: With `CC(C)NC(=O)Cn1c(SCC(=O)N2CCc3ccccc3C2)nc2ccccc21` as the compound, how does the Potency read?
A: inconclusive: 7.94 µM [inhibitor, full curve, poor fit]

Q: With `N[C@@H](Cc1ccccc1)c1nnc2sc(SCc3ccccc3)nn12` as the compound, how does the Potency read?
A: inconclusive: 31.6 µM [inhibitor, single point]

Q: Which Potency does the source give for `Cc1ccc(C(=O)NCC(=O)OCC(=O)Nc2ccc(Cl)cn2)cc1` here?
A: inactive

Q: With `CCN(c1ccc(OC)cc1)S(=O)(=O)c1nnc(NC(=O)c2ccccc2Cl)s1` as the compound, how does the Potency read?
A: inactive

Q: Which Potency does the source give for `COc1cc(CNn2cn[nH]c2=S)cc(Cl)c1OCc1ccccc1` here?
A: inconclusive: 11.2 µM [inhibitor, partial curve, poor fit]

Q: How did the Potency turn out when `O=C1OCCC1Sc1ncnc2sc3c(c12)CCC3` (configuration not stated) was run?
A: inconclusive: 31.6 µM [inhibitor, single point]

Q: `O=C(Nc1sc(-c2ccccc2)cc1C(=O)O)c1ccccc1` was tested. Which Potency did it give?
A: inactive

Q: `C=CCOc1c(Br)cc(CNn2c(C)n[nH]c2=S)cc1OC` was tested. Which Potency did it give?
A: inconclusive: 2.82 µM [inhibitor, partial curve, poor fit]

Q: With `CCOc1cc(/C=C2\SC(=N)N(c3nccs3)C2=O)ccc1OCCN1CCOCC1` as the compound, how does the Potency read?
A: inconclusive: 39.8 µM [inhibitor, partial curve, poor fit]

Q: With `CCOC(=O)C1CCN(CC(=O)N2CCCc3c2c(=O)oc2ccc(OCc4ccccc4)cc32)CC1` as the compound, how does the Potency read?
A: inconclusive: 39.8 µM [inhibitor, partial curve, poor fit]

Q: For `CCOC(=O)N1CCN(C(=S)NC(=O)c2ccc(Br)cc2)CC1`, which Potency is on record?
A: inconclusive: 35.5 µM [inhibitor, single point]

Q: How did the Potency turn out when `C=C(C)Cn1c(-c2ccncc2)n[nH]c1=S` was run?
A: inconclusive: 31.6 µM [inhibitor, single point]

Q: How did the Potency turn out when `CCOC(=O)C1=C(CSc2nc3c(cc2C#N)CCC3)OC(N)=C(C#N)C1c1ccccc1` (configuration not stated) was run?
A: inconclusive: 35.5 µM [inhibitor, partial curve]

Q: For `O=C(NC(=S)N1CCN(Cc2ccccc2)CC1)c1cccnc1`, which Potency is on record?
A: inconclusive: 35.5 µM [inhibitor, single point]

Q: How did the Potency turn out when `CC(C)(C)Cc1nnc(NC(=O)c2ccc3c(c2)OCO3)s1` was run?
A: inconclusive: 3.55 µM [inhibitor, partial curve, poor fit]
